The whole screen tested about 320,000 compounds, of which about 200 (0.062%) were called active. This list was built around the results that the source calls inconclusive (neither active nor inactive); the mix of calls is not that of the screen. The call rests on the fitted dose curve; in most records, active means well fitted activation curve with a large enough effect; inconclusive means small, poorly fitted or top-dose-only effect; inactive means no such curve, though single readings can be large or run the other way. No potency is given beside an inconclusive call; the fits are too rough.
test: qHTS assay for re-activators of p53 using a Luc reporter; conditions: H1299 p53-A138V BP100-luciferase reporter, luminescence, 24 h; series mostly up to 92.2 µM; further: nearly all actives have a fitted effect of over 45% in size
Method in brief: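 H1299 (p53-null), stable ts p53-A138V + BP100-Luc; 1000 cells/well, Opti-MEM/10% FBS; cpd 4 pt, 1:5; 24 h, 37 deg C, 5% CO2; detection reagent 10 min RT; luminescence.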
Potency means the concentration at half of the fitted maximal effect; tags describe the fitted curve by direction and shape.

SMILES | Potency
C[C@H]1O[C@@H](O[C@H]2CC[C@@]3(C)C(CC[C@]4(C)C3C=C[C@]35OC[C@@]6(CCC(C)(C)C[C@H]63)[C@@H](O)C[C@]54C)[C@]2(C)CO)[C@H](O)[C@@H](O[C@@H]2O[C@H](CO)[C@@H](O)[C@H](O)[C@H]2O)[C@H]1O (stereo partly drawn) | inconclusive [activator, single point]
O=C(c1cccs1)C1C(c2ccc(Br)cc2)NC(=S)NC1(O)C(F)(F)F (stereo not drawn) | inconclusive [activator, full curve, poor fit]
CCC(C)c1ccc(NC(=S)NCc2cccs2)cc1 (stereo not drawn) | inconclusive [activator, full curve, poor fit]
CCNc1nc(-c2ccc(OC(F)F)cc2)c(C)s1 | inconclusive [activator, single point]
CC1(C)Cc2c(C#N)c(SCC(=O)c3ccccc3)nc(N3CCOCC3)c2CS1 | inconclusive [activator, partial curve, poor fit]
Cc1nc(SCc2ccccc2C#N)n[nH]1 | inconclusive [activator, single point]
Clc1ccc(-c2cnc3n2CCC3)cc1 | inconclusive [activator, single point]
Cc1ccc(C(=O)Nc2ncccc2S(=O)(=O)c2ccccc2)cc1 | inconclusive [activator, partial curve, poor fit]
Cc1ccc(N2C(=O)C3C4C=CC(CNC(=S)Nc5ccc(Cl)cc5)(O4)C3C2=O)cc1 (stereo not drawn) | inconclusive [activator, single point]
CCOC(=O)NC(=O)/C(C=Nc1ccc(Cl)cc1)=C(\C)O | inactive
COc1ccc(-c2cccc(-c3cc(=O)oc4cc(OC)cc(OC)c34)c2)cc1 | inactive
CC(=O)Nc1cccc(C(=O)N/N=C/c2ccc(C)o2)c1 | inactive
Cc1cccc(Nc2nc(-c3ccccc3)c(C(=O)Nc3cccnc3)s2)c1 | inconclusive [activator, partial curve, poor fit]
O=C(Nc1nc(-c2cc(Cl)sc2Cl)cs1)c1ccccc1 | inconclusive [activator, partial curve, poor fit]
O=c1c(O)c(-c2cccs2)oc2ccc(Cl)cc12 | inactive
O=C(Nc1ccncc1)c1cc2ccccc2cc1O | inconclusive [activator, partial curve, poor fit]
COc1cc(/C=N/Nc2ccccn2)ccc1O | inconclusive [activator, partial curve, poor fit]
Cc1ccc2oc(=O)c(/C=C(\O)c3sc(C)nc3C)nc2c1 | inconclusive [activator, partial curve, poor fit]
O=C(CC1SC(N2CCCC2)=NC1=O)Nc1ccc(C(=O)Nc2ncccc2O)cc1 (stereo not drawn) | inconclusive [activator, partial curve, poor fit]
O=C1CC(Cc2ccc(Br)cc2)C(=O)N1c1ccccc1 (stereo not drawn) | inactive
Cc1nnc(NC(=O)CN2CC(C)OC(C)C2)s1 (stereo not drawn) | inconclusive [activator, single point]
Cc1ccc(CC(=O)Nc2nc3c(s2)CCCC3)cc1 | inconclusive [activator, partial curve, poor fit]
COc1ccccc1N1CCN(C/C(C)=C/c2ccccc2)CC1 | inactive

SMILES | Potency
O=C(Nc1ccc(-c2noc(-c3cccs3)n2)cc1)c1cccnc1 | inconclusive [activator, partial curve, poor fit]
O=C(CSC1=NCCS1)Nc1ccc2ccccc2c1 | inactive
CC(=O)c1cc(NC(=O)c2cccc(C(F)(F)F)c2)c(=O)oc1/C=C/N(C)C | inactive
Brc1ccc(-c2nc(-c3ccccc3)no2)o1 | inconclusive [activator, partial curve, poor fit]
CNC[C@H]1Oc2ccc(NC(=O)C3CCCCC3)cc2CC(=O)N([C@H](C)CO)C[C@@H]1C | inactive
FC(F)(F)c1ccc(-c2csc(-c3ccno3)n2)cc1 | inconclusive [activator, single point]
C/C(=N\NC(=O)c1cc2ccccc2cc1O)c1cccs1 | inconclusive [activator, full curve, poor fit]
Cc1ccc(OCC(=O)c2ccc3c(c2)CCCC3)cc1C | inconclusive [activator, single point]
Cc1ccc(S(=O)(=O)N(C)CC(=O)N2CCN(Cc3ccc4c(c3)OCO4)CC2)cc1 | inactive
O=C(COc1ccc(/C=N/NC(=O)c2cc3ccccc3o2)cc1Cl)Nc1ccccc1 | inactive
O=C(Nc1ccccc1C(=O)N/N=C/c1ccco1)c1ccc(Cl)cc1 | inconclusive [activator, single point]
O=C(Nc1cc(C(F)(F)F)ccc1Cl)C(Sc1nnc(-c2cccs2)o1)c1ccccc1 (stereo not drawn) | inconclusive [activator, single point]
O=C(O)c1ccccc1OCCOc1ccccc1 | inconclusive [activator, single point]
Cc1cccc(C(=O)NCc2ccc(S(N)(=O)=O)cc2)c1[N+](=O)[O-] | inactive
N#Cc1c(N2CCCC2)nsc1-c1ccccc1 | inconclusive [activator, full curve, poor fit]
COC(=O)c1ccc(NC(=O)c2cccc(OC)c2)cc1 | inconclusive [activator, partial curve, poor fit]
C=CCN1C(=O)c2ccc(C(=O)OCC(=O)N(CC)C3CCS(=O)(=O)C3)cc2C1=O (stereo not drawn) | inconclusive [activator, full curve, poor fit]
Cc1ccc(/C(N)=N/OC(=O)c2ccc3c(c2)OCO3)cc1 | inconclusive [activator, partial curve, poor fit]
C/C(N)=C(/C#N)C(=O)CSc1ncnc2ccccc12 | inconclusive [activator, partial curve, poor fit]
COc1ccc([N+](=O)[O-])cc1NC(=S)NC(NC(=O)C(c1ccccc1)c1ccccc1)C(Cl)(Cl)Cl (stereo not drawn) | inconclusive [activator, single point]
CC(OC(=O)/C=C/c1ccc2ccccc2n1)C(=O)NCc1ccccc1 (stereo not drawn) | inconclusive [activator, full curve, poor fit]
COc1ccc(/C=C/C(=O)OCC(=O)NCC2CCCO2)cc1 (stereo not drawn) | inactive
COC(=O)c1c[nH]n2c(=O)c(Cl)c(C)nc12 | inconclusive [activator, partial curve, poor fit]

SMILES | Potency
O=C(COc1ccc(Cl)cc1)NCc1nnc(SCC(=O)Nc2ccc3c(c2)OCCO3)o1 | inconclusive [activator, partial curve, poor fit]
Cc1ccn2cc(C34CC5CC(CC(C5)C3)C4)nc2c1 | inactive
COCCn1c(C)cc(C(=O)COC(=O)c2ccccc2Br)c1C | inactive
Cc1ccc2oc(-c3cccc(N)c3)nc2c1 | inconclusive [activator, full curve, poor fit]
O=C(NC(=S)Nc1ccc2nc[nH]c2c1)c1ccccc1 | inconclusive [activator, partial curve]
O=S(=O)(/N=C(/Nc1ccc(F)cc1F)c1ccccc1)c1ccc(Br)cc1 | inactive
O=C(CSc1nnc(-c2ccc(O)cc2)o1)N1CCOCC1 | inconclusive [activator, partial curve, poor fit]
CCc1ccc2c(c1)c1nc(C)sc1n2CC(=O)OC | inactive
C/C(CC(=O)Nc1ccc(Cl)cc1Cl)=N\NC(=O)c1ccncc1 | inactive
O=C(CSc1nncs1)Nc1ccc(N2CCCCC2)cc1 | inconclusive [activator, full curve, poor fit]
CC(=O)OCCCNc1cc(Sc2ccc(C)cc2)c2nonc2c1[N+](=O)[O-] | inactive
CCN(CC)c1ccc(NC2CC(=O)N(CCc3ccc(OC)cc3)C2=O)cc1 (stereo not drawn) | inactive
COc1cc(C(=O)Nc2cccc(-c3nncn3C)c2)cc(OC)c1OC | inconclusive [activator, single point]
CCc1cccc(NC(=O)Cn2cccc2)c1 | inconclusive [activator, single point]
Cc1ccc(Cc2nc(-c3cccc(C)c3)no2)cc1 | inconclusive [activator, partial curve, poor fit]
O=C(c1ccccc1)c1ccc(N2CCCC2)cc1 | inconclusive [activator, partial curve, poor fit]
C[C@@H]1CC=C[C@H]2[C@H]1C(=O)N(Cc1ccccc1)[C@H]2c1ccc2ccccc2c1Br | inactive
COc1cccc(NC(=O)CN(C)C(=O)CSc2nc3ccccc3s2)c1 | inactive
O=C(NC(=S)Nc1ccccn1)c1ccc([N+](=O)[O-])cc1 | inconclusive [activator, partial curve, poor fit]
O=C(Nc1nnc(-c2ccncc2)o1)c1ccccc1 | inconclusive [activator, single point]
Cc1ccc(N=Cc2c(C)[nH]n(-c3nc4ccccc4[nH]3)c2=O)cc1 | inconclusive [activator, partial curve, poor fit]
O=C(CSc1nnc(-c2ccccc2F)o1)NC(=O)Cc1ccccc1 | inconclusive [activator, single point]
